{"source": "PubChem BioAssay AID485344", "about": "(National Center for Advancing Translational Sciences (NCATS), 2010)", "note": "Among all 340,000 compounds or so, about 6,900 (2%) were called active. Cut-off read from the data, not from the text of the source: active = inhibition above about 30%; inactive = below that, where a call was filed. The list shows a part of the results, in another mix than the full data. The source gives no active or inactive call for entries shown without one."}
{"target": "D(2) dopamine receptor (Homo sapiens) (UniProt P14416)", "sequence (P14416 whole entry, looked up)": "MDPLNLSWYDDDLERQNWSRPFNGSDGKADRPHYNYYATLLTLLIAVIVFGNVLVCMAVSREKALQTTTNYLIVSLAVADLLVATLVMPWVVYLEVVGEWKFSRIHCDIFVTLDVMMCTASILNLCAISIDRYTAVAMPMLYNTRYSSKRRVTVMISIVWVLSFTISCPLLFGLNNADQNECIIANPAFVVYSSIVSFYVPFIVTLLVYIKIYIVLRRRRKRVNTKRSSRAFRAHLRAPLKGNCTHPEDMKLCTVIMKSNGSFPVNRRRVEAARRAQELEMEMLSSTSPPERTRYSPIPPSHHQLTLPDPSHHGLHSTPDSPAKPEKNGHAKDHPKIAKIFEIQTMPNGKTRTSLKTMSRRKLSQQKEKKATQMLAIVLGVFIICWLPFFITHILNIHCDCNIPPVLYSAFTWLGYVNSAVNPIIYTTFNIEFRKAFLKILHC", "assay": "HTS Assay for Allosteric Antagonists of the Human D2 Dopamine Receptor: Primary Screen for Antagonists; note: 0% is about no effect", "conditions": "HEK293 TREx D2 cells, calcium flux, dopamine EC80; at 10 µM; stronger effect = higher value", "how_it_was_run": "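Overnight-induced (tetracycline, 30 C) HEK293 T-REx cells carrying force-coupled D2 receive a no-wash calcium dye, then compound, then EC80 dopamine at 180 s; signals are read kinetically throughout.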"}
{"smiles": "COc1ccc(CCNc2nc(SCc3ccc(Cl)cc3)nc3ccccc23)cc1OC", "inhibition": "-6.83%"}
{"smiles": "Cc1cccc(C(=O)Nc2ccc3nc(SCCOc4ccccc4)sc3c2)c1", "inhibition": "-13.8%"}
{"smiles": "CCc1cnc2c(c1SCC(=O)NCc1ccc(F)cc1)c(=O)n(C)c(=O)n2C", "inhibition": "19.1%"}
{"smiles": "COc1ccc(C2C=C(c3ccccc3)Nc3nc(NC(=O)/C=C/c4ccccc4Cl)nn32)cc1", "note": "(configuration not stated)", "inhibition": "10.3%"}
{"smiles": "Nc1ncc(S(=O)(=O)Nc2ccc(F)cc2F)cn1", "inhibition": "0.88%"}
{"smiles": "Cc1cc(OCCN2CCCCC2)nc2ccccc12", "inhibition": "active: 30.6%"}
{"smiles": "Nc1c(C(=O)Nc2cccc(F)c2)c2ccccn2c1C(=O)c1ccccc1", "inhibition": "2.66%"}
{"smiles": "COC(=O)C1CCN(Cc2ccc(C)cc2)CC1", "inhibition": "active: 68.8%"}
{"smiles": "CCOc1ccc(CNC(=O)CS(=O)(=O)c2cccc3nsnc23)cc1", "inhibition": "3.58%"}
{"smiles": "Cc1cc2nc(-c3ccc(NC(=O)c4ccccc4F)cc3)oc2cc1C", "inhibition": "-8.84%"}
{"smiles": "COc1ccccc1-c1noc(-c2ccc(NC3CCCC3)c([N+](=O)[O-])c2)n1", "inhibition": "1.04%"}
{"smiles": "CC(C)(C)NC(=O)C1CCCN(S(=O)(=O)c2ccc(-n3cnnn3)cc2)C1", "note": "(configuration not stated)", "inhibition": "active: 32%"}
{"smiles": "CC1=CC2=NC(=O)CC(C)(C(=O)N(CC(=O)NC3CCCC3)c3cc(C)cc(C)c3)N2C=C1", "note": "(configuration not stated)", "inhibition": "active: 60.2%"}
{"smiles": "COc1ccc(OC)c(CNS(=O)(=O)c2ccc(-c3coc(C)n3)cc2)c1", "inhibition": "-21.4%"}
{"smiles": "CCC(=O)C1=C(c2ccc(OC)c(OC)c2)N(C(=O)CC)n2c(nnc2-c2ccc(C)cc2)S1", "inhibition": "-13.2%"}
{"smiles": "CC(=O)c1ccc(N2CCN(c3ccc4cc(S(=O)(=O)N5CCCCC5)ccc4n3)CC2)cc1", "inhibition": "-5.53%"}
{"smiles": "CCOC(=O)c1ccc(NC(=O)CSc2nc3ccccc3c(=O)n2CCC(=O)NC2CCCCC2)cc1", "inhibition": "-27.8%"}
{"smiles": "COc1ccc(-c2nc(CS(=O)(=O)CC(=O)NCCc3ccc(C)cc3)c(C)o2)cc1", "inhibition": "11.5%"}
{"smiles": "COc1ccc(C)cc1NC(=O)CC1NCCNC1=O", "note": "(configuration not stated)", "inhibition": "-1.3%"}
{"smiles": "Cc1cc(=O)n(Cc2ccccc2)c2c1c(C)nn2C", "inhibition": "12%"}
{"smiles": "CC(C)N(CCCNC(=O)Cn1ncc2c([nH]c3ccccc32)c1=O)Cc1ccccc1", "inhibition": "-22.4%"}
{"smiles": "COCCNC(=O)c1ccc2nc(Cc3ccccc3)oc2c1", "inhibition": "-14.2%"}
{"smiles": "Cc1ccc(Nc2nnc(-c3ccc(C)c(S(=O)(=O)N4CCOCC4)c3)c3ccccc23)cc1", "inhibition": "0.921%"}
{"smiles": "OCCCN1CCN(CCCOc2ccccc2-c2ccccc2)CC1", "inhibition": "active: 53.3%"}
{"smiles": "Cc1cc(NC(=O)CCC(=O)N(Cc2ccco2)C2(C(=O)NC3CCCC3)CCCCC2C)no1", "note": "(configuration not stated)", "inhibition": "active: 33.7%"}
{"smiles": "Cc1cc(C)c2c(=O)cc(C(=O)Nc3sc4c(c3C(=O)NCC3CCCO3)CCCC4)oc2c1", "note": "(configuration not stated)", "inhibition": "6.96%"}
{"smiles": "CCCCCn1c(CN2CCN(c3ccc(OC)cc3)CC2)nc2c1c(=O)[nH]c(=O)n2C", "inhibition": "-9.91%"}
{"smiles": "Cc1ccc(Cl)cc1NC(=O)Nc1cccc(OCc2cc(=O)n3ccccc3n2)c1", "inhibition": "5.72%"}
{"smiles": "CC(C)(C)NCCOc1ccc2ccccc2c1", "inhibition": "active: 45.4%"}
{"smiles": "COc1ccc(-n2c(-c3ccco3)nc3c(cnn3-c3ccccc3Cl)c2=O)cc1", "inhibition": "-8.36%"}
{"smiles": "Cc1nn(C)c2c1c(-c1ccccc1)cc(=O)n2CC(=O)NC(C)c1ccccc1", "note": "(configuration not stated)", "inhibition": "-4.78%"}
{"smiles": "CCCOc1ccc(C2c3c(-c4c(C)cc(C)cc4O)n[nH]c3C(=O)N2CCO)cc1", "note": "(configuration not stated)", "inhibition": "3.89%"}
{"smiles": "O=C(Cn1c(=O)n(Cc2ccccc2)c(=O)c2sc3ccccc3c21)Nc1ccccc1", "inhibition": "-3.62%"}
{"smiles": "Cc1ccc(Cl)cc1NC(=O)c1sc(-n2nc(C)c(Cc3ccc4c(c3)OCO4)c2C)nc1C", "inhibition": "-21.9%"}
{"smiles": "CCN1CCOC(=O)C1CC(=O)Nc1ccc(Br)cc1", "note": "(configuration not stated)", "inhibition": "3.89%"}
{"smiles": "CCOc1ccc(-c2cc3nc(C4CCN(C(=O)OC(C)(C)C)CC4)c(C(=O)Nc4cc(OC)ccc4OC)cn3n2)cc1", "inhibition": "6.24%"}
{"smiles": "O=C(NCC(c1ccco1)S(=O)(=O)c1cccs1)c1ccc(F)c(F)c1", "note": "(configuration not stated)", "inhibition": "-19.4%"}
{"smiles": "CCc1ccccc1NC(=O)N1CCCn2nc(C)cc21", "inhibition": "-3.19%"}
{"smiles": "Cn1c(N)c(C(=O)/C=C/c2ccccc2)c(=O)[nH]c1=O", "inhibition": "active: 53.6%"}
{"smiles": "Cc1nc(-c2ccccc2)sc1-c1ccc(SCC(=O)NCc2ccccc2Cl)nn1", "inhibition": "7.55%"}
{"smiles": "NC(N)=NC(N)=Nc1ccc2ccccc2c1", "inhibition": "active: 32.9%"}
{"smiles": "CC1CCN(c2nn3c(=O)c(C(=O)NC(C)C)cnc3s2)CC1", "inhibition": "1.25%"}
{"smiles": "N#Cc1nc(-c2ccc(COc3ccc(Cl)cc3)o2)oc1N1CCC(C(N)=O)CC1", "inhibition": "5.45%"}
{"smiles": "O=C(CSc1cn(CC(=O)N2CCCCC2)c2ccccc12)Nc1ccccc1", "inhibition": "0.663%"}
{"smiles": "COc1ccc(OC)c(C2=NS(=O)(=O)N(C)C(C(=O)Nc3ccc(F)cc3F)=C2)c1", "inhibition": "8.3%"}
{"smiles": "Cc1ccc(C)c(NC(=O)C2CCCN(c3ncnc4onc(C)c34)C2)c1", "note": "(configuration not stated)", "inhibition": "5.08%"}
{"smiles": "COc1cccc(CNC(=O)c2cccc(-n3c(C)nc4cccnc43)c2)c1OC", "inhibition": "5.11%"}
